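Grown in 96-well plates, cells were treated for 48 hours with each compound at five concentrations. Insufficient inhibition: endpoint recorded as highest concentration tested. GI50 marks 50% less growth.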 Calls of active or inactive are those of the source. Rule as the data show it: active = GI50 up to about 1.1 µM and inactive = higher.
Test system: NCI-H322M
Test: NCI-60 cell line screen, 48 h

Question: O=C(CC1(O)C(=O)Nc2c(Cl)cc(Cl)cc21)c1ccc(F)cc1 (stereo not given) was tested. Which GI50 did it give?
Answer: inactive: 75 µM

Question: Which GI50 does the source give for O=C1CCC(=O)c2sccc2N1 here?
Answer: inactive: > 100 µM

Question: Which GI50 does the source give for COc1cc(/C=C2\C(=O)N(c3ccccc3)C(c3ccccc3)S2(=O)=O)cc(OC)c1OC (stereo not given) here?
Answer: inactive: 88.7 µM

Question: COc1ccc(OC2(c3cc(OC)ccc3OC)OC(=O)c3ccccc32)cc1 (stereo not given) was tested. Which GI50 did it give?
Answer: inactive: > 100 µM

Question: CCCC(=O)CC(C)C(=O)C(=O)NC12CC3CC(CC(C3)C1)C2 (stereo not given) was tested. Which GI50 did it give?
Answer: inactive: > 100 µM

Question: With CC1=C2C(=O)OCC23C=COC3(C)O1 (stereo not given) as the compound, how does the GI50 read?
Answer: inactive: 44.6 µM

Question: Which GI50 does the source give for Cn1c(-c2ccccc2)cc(-c2ccsc2)c1-c1ccsc1 here?
Answer: inactive: > 100 µM

Question: Which GI50 does the source give for O=C(CC1(O)C(=O)Nc2ccc(Br)cc21)c1ccc(Cl)cc1Cl (stereo not given) here?
Answer: inactive: 50.9 µM

Question: How did the GI50 turn out when COC(=O)N[C@H](C(=O)NC(OCc1ccccc1)C1COC(C)(C)O1)C(C)O[Si](C)(C)C(C)(C)C (stereo not given in full) was run?
Answer: inactive: 61.1 µM

Question: Which GI50 does the source give for Cc1cc(C)nc(NS(=O)(=O)c2ccc(Nc3c4ccccc4nc4ccc(C(=O)Nc5ccc(S(=O)(=O)N=C(N)N)cc5)cc34)cc2)n1 here?
Answer: inactive: > 100 µM

Question: With C1CSCCSS[C@@H]2CCCCC2SC1 (stereo not given in full) as the compound, how does the GI50 read?
Answer: inactive: > 100 µM

Question: Which GI50 does the source give for CCOc1cccc(/C=N\c2ccccc2SSc2ccccc2/N=C\c2cccc(OCC)c2O)c1O here?
Answer: inactive: 8.32 µM

Question: How did the GI50 turn out when [N-]=[N+]=NC1(Cc2ccccc2)C(=O)Nc2ccccc2C1=O (stereo not given) was run?
Answer: inactive: > 100 µM

Question: For COc1cc2cc(C(=O)N3CC(COS(C)(=O)=O)c4ccc(O)cc43)[nH]c2c(OC)c1OC (stereo not given), which GI50 is on record?
Answer: active: 0.00132 µM

Question: Which GI50 does the source give for CCOP(=O)(OCC)C(C(=O)OC)C(=O)C(=O)Nc1ccc(Cl)cc1Cl (stereo not given) here?
Answer: inactive: > 100 µM

Question: Which GI50 does the source give for CCN(CC)CCC(=O)c1ccc(Oc2ccc(Cl)cc2)cc1 here?
Answer: inactive: 17.5 µM

Question: COc1ccccc1/C=C1\SC(=S)N(/C=C2\C(=O)Oc3ccccc3C2=O)C1=O was tested. Which GI50 did it give?
Answer: inactive: 37.2 µM

Question: For CC1=C/C(=N\N(C)C)C(C(O)(C(F)(F)F)C(F)(F)F)C(C)(C)C1 (stereo not given), which GI50 is on record?
Answer: inactive: > 100 µM

Question: How did the GI50 turn out when Cc1c(N2CCCC2)cc2c(c1NC(=O)c1ccccc1Cl)C(C)(C)CC2(C)C was run?
Answer: inactive: 14.5 µM

Question: Which GI50 does the source give for CCOC(=O)C1N(S(=O)(=O)c2ccc(C)cc2)CCC12c1ccccc1N(C(C)=O)C2C(/C=C/C(=O)OC)=C/C(=O)OC (stereo not given) here?
Answer: inactive: > 100 µM

Question: O=Cc1c[nH]c2c(=O)[nH]cnc12 was tested. Which GI50 did it give?
Answer: inactive: > 100 µM

Question: With CC(C)C(Nc1ncnc2nc[nH]c12)C(=O)O (stereo not given) as the compound, how does the GI50 read?
Answer: inactive: > 100 µM

Question: With COc1cc2cc(C(=O)N3C[C@H](CCl)c4c3cc(N)c3ccccc43)[nH]c2c(OC)c1OC as the compound, how does the GI50 read?
Answer: active: 0.138 µM

Question: Which GI50 does the source give for CC1c2c(Cl)nc3ccccc3c2Oc2c1c(Cl)nc1ccccc21 here?
Answer: inactive: > 100 µM

Question: Which GI50 does the source give for CCC(=O)Nc1ccc(/N=N/N(C)C)cc1 here?
Answer: inactive: > 100 µM

Question: For COC(=O)C(CCCCN)NC(=O)C(CCCCN)NC(=O)C(CCCCN)NC(C)=O.Cc1ccc(C(=O)Nc2ccc(S(=O)(=O)O)c3cc(S(=O)(=O)O)cc(S(=O)(=O)O)c23)cc1NC(=O)c1cccc(NC(=O)Nc2cccc(C(=O)Nc3cc(C(=O)Nc4ccc(S(=O)(=O)O)c5cc(S(=O)(=O)O)cc(S(=O)(=O)O)c45)ccc3C)c2)c1, which GI50 is on record?
Answer: inactive: > 50 µM

Question: With COC(=O)c1cc(O)nc(O)n1 as the compound, how does the GI50 read?
Answer: inactive: > 100 µM

Question: Which GI50 does the source give for COc1ccc(C(=O)c2nc3ccccc3nc2N2CCN(c3ccccc3)CC2)cc1OC here?
Answer: inactive: > 100 µM

Question: COc1ccc(C(=O)O/N=C2/CCC/C2=C\c2ccccc2)cc1 was tested. Which GI50 did it give?
Answer: inactive: > 100 µM

Question: With CCOC(=O)C1=C(N2CCCC2)NC(=O)CC1=O as the compound, how does the GI50 read?
Answer: inactive: > 100 µM

Question: CC(C)(C)N1CC2(CCCCC2)C1=O was tested. Which GI50 did it give?
Answer: inactive: > 100 µM

Question: Which GI50 does the source give for CC1(c2cccc(N)c2)C2C(=O)NC(=O)C1C(=O)NC2=O (stereo not given) here?
Answer: inactive: 74 µM

Question: Which GI50 does the source give for COc1ccc(C(=O)/C=C2\Nc3cccnc3N\C2=C/C(=O)c2ccc(OC)cc2)cc1 here?
Answer: inactive: 32.6 µM

Question: With Nc1ccccc1.O=P(O)(OP(=O)(O)c1ccccc1)c1ccccc1 as the compound, how does the GI50 read?
Answer: inactive: > 100 µM

Question: With Cc1ccc(-c2cc(=S)n(-c3ccccc3)c3[nH]c(=S)n(-c4ccccc4)c(=N)c23)cc1 as the compound, how does the GI50 read?
Answer: inactive: > 100 µM

Question: How did the GI50 turn out when Cc1cc(O)c2cc3c(O)c(O)ccc3cc2c1 was run?
Answer: inactive: 3.84 µM

Question: Which GI50 does the source give for O=C(O)c1ccc(NCc2nc3cc4ccccc4cc3[nH]2)cc1 here?
Answer: inactive: > 100 µM

Question: O=C(CO)CC(=O)C(=O)Nc1nc([N+](=O)[O-])cs1 was tested. Which GI50 did it give?
Answer: inactive: > 100 µM

Question: How did the GI50 turn out when CC(=O)OCC1OC(n2c(=O)n(-c3ccccc3)c(=O)c3cc(Br)cc(Br)c32)C(OC(C)=O)C(OC(C)=O)C1OC(C)=O (stereo not given) was run?
Answer: inactive: > 100 µM

Question: For CCOC(=O)C(C)c1nc2c(Cl)c3ncccc3cc2[nH]c1=O (stereo not given), which GI50 is on record?
Answer: inactive: 88.5 µM

Question: How did the GI50 turn out when CN(C)CCNC(=O)c1cccc2c1nc(-c1ccncc1)c1ccccc12 was run?
Answer: inactive: 3.74 µM

Question: Which GI50 does the source give for C/C(CC(=O)Nc1ccccc1C)=N/NS(=O)(=O)c1ccc(C)cc1 here?
Answer: inactive: > 100 µM

Question: Which GI50 does the source give for C=CC(C)(C)/C(=C\CO[Si](C(C)C)(C(C)C)C(C)C)C(=O)N(C)c1ccccc1I here?
Answer: inactive: 16.4 µM

Question: How did the GI50 turn out when Cc1ccc(/N=N/c2c(-c3ccccc3)nn(C(=O)CC(=O)Nc3ccc(Cl)cc3)c2-c2ccccc2)cc1 was run?
Answer: inactive: 38.7 µM

Question: For COc1ccc(NC(=O)C(=O)c2c(O)c3ccc(O)cc3oc2=O)c([N+](=O)[O-])c1, which GI50 is on record?
Answer: inactive: > 100 µM

Question: Which GI50 does the source give for COc1ccc(C(N)=O)cc1/N=N/N(C)C here?
Answer: inactive: > 100 µM

Question: How did the GI50 turn out when CC(N)Cc1ccc(Cl)cc1 (stereo not given) was run?
Answer: inactive: > 100 µM

Question: Which GI50 does the source give for CCCOC(=O)C1CCC(=O)N1C(=O)C(C)Cl (stereo not given) here?
Answer: inactive: > 100 µM

Question: Which GI50 does the source give for CC(C)NC(=O)CCN(C(=O)O)S(=O)(=O)c1ccc(NC(=O)c2ccccc2)cc1 here?
Answer: inactive: > 100 µM

Question: Which GI50 does the source give for CC(=O)OC(=C(C#N)C#N)c1nccnc1C(C)=O here?
Answer: inactive: > 20 µM

Question: With CCOC(=O)c1cn(C)c(=S)n2c1nc1ccccc12 as the compound, how does the GI50 read?
Answer: inactive: 82.8 µM

Question: With O=C(NC12CC3CC(CC(C3)C1)C2)n1cnc2cncnc21 as the compound, how does the GI50 read?
Answer: inactive: 40.7 µM

Question: Which GI50 does the source give for CC1OC(=O)C(C(C)C)NC(=O)C(C(C)C)OC(=O)C(C(C)C)NC(=O)C(C)OC(=O)C(C(C)C)NC(=O)C(C(C)C)OC(=O)C(C(C)C)NC(=O)C(C)OC(=O)C(C(C)C)NC(=O)C(C(C)C)OC(=O)C(C(C)C)NC1=O (stereo not given) here?
Answer: active: 0.0036 µM

Question: For COc1ccc([C@@H]2CC(=O)NCCCNCCCCNCCCN2)cc1, which GI50 is on record?
Answer: inactive: > 100 µM

Question: With O=C1CSC(c2cccc(Oc3ccccc3)c2)N1c1cc(Cl)ccc1Cl (stereo not given) as the compound, how does the GI50 read?
Answer: inactive: 39.8 µM

Question: Which GI50 does the source give for O=[N+]([O-])C1(CO)COC(CCc2ccccc2)OC1 (stereo not given) here?
Answer: inactive: > 100 µM

Question: For CC(=O)Nc1ccc2c(C)c3c(nc2n1)[nH]c1ccccc13, which GI50 is on record?
Answer: inactive: 30.5 µM

Question: C[C@@H]1C(=O)O[C@H]1[C@H](O)CO was tested. Which GI50 did it give?
Answer: inactive: > 100 µM

Question: How did the GI50 turn out when Cc1cn(C2CC(N=[N+]=[N-])C(C(=O)O)O2)c(=O)[nH]c1=O (stereo not given) was run?
Answer: inactive: > 100 µM

Question: COC(=O)C(c1n[nH]c2ccccc12)C(C(=O)OC)c1n[nH]c2ccccc12 (stereo not given) was tested. Which GI50 did it give?
Answer: inactive: > 100 µM

Question: Which GI50 does the source give for O=C(O)CCCCCCC[C@@H]1S[C@H]1CCCCCCO here?
Answer: inactive: > 100 µM

Question: For COC(=O)c1cc2c3c(c(C(C)=O)c(OC)c2[nH]1)NCC3, which GI50 is on record?
Answer: inactive: > 50 µM

Question: With COc1ccc(-c2oc3c(OC)c(OC)c(OC)c(OC)c3c(=O)c2OC)cc1OC [3,5,6,7,8,3',4'-HEPTAMETHOXYFLAVONE] as the compound, how does the GI50 read?
Answer: inactive: 64.7 µM

Question: For CNC(=O)CN(CC(=O)O)C(=O)NC, which GI50 is on record?
Answer: inactive: > 100 µM

Question: With CON(C(=O)OC(C)(C)C)c1ccccc1 as the compound, how does the GI50 read?
Answer: inactive: > 100 µM

Reference: ChEMBL document CHEMBL1201862, “PubChem BioAssay data set” (2004)
